Measurements reported in paper PMC5700166.
This is a selection; strong and weak results do not stand in their true shares. The list includes weakly bound sequences.

Tests used:
Assay in all cases: protein-binding microarray (PBM)
Settings in all cases: PBM: ~300 nM protein, 6 mM HEPES pH 7.8, 80 mM KCl, 0.5 mM EDTA, 0.5 mM EGTA, 6% glycerol, 35 ng/ul poly-dIdC, 1% milk, 1 h, room temperature; Ap Aiptasia and Nv Nematostella (sea anemones) / Co Capsaspora / Aq Amphimedon (sponge) / Dm Drosophila / Hu human; RHD is the Rel homology domain; high values mean tight binding; most listed sequences are background and not binding sites; double strand, one strand shown
GST-Ap-NF-kB RHD = target: T1, GST-Ap-NF-kB RHD (UniProt A0A913YAJ5)
T1 sequence: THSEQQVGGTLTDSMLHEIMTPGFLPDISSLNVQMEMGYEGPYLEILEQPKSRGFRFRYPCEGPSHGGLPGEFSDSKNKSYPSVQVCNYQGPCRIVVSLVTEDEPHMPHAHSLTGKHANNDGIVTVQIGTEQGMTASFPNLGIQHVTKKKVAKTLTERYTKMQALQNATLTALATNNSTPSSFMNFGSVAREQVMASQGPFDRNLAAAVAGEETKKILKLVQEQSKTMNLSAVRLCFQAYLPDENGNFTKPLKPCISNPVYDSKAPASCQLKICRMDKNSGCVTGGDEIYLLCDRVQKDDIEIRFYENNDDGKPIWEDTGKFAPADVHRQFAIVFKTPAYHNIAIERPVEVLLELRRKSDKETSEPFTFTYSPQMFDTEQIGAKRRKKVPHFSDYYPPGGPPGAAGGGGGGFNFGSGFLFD

[1] = target: T2, GST-Nv-NF-kB (Cys allele) (UniProt E5G601)
T2 sequence: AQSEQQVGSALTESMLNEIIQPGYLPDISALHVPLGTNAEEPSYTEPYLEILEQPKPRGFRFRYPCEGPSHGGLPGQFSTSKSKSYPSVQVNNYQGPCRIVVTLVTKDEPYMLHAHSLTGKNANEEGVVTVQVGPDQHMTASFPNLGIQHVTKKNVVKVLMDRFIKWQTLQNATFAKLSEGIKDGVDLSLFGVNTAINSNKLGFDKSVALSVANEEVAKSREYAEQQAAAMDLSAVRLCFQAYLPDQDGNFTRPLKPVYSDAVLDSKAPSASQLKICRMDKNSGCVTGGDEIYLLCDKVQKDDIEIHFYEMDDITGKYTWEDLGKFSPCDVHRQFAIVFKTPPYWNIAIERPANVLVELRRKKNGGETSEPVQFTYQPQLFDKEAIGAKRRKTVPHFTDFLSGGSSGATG

GST-Co-NF-kB = target: T3, GST-Co-NF-kB (UniProt F1ARL5)
T3 sequence: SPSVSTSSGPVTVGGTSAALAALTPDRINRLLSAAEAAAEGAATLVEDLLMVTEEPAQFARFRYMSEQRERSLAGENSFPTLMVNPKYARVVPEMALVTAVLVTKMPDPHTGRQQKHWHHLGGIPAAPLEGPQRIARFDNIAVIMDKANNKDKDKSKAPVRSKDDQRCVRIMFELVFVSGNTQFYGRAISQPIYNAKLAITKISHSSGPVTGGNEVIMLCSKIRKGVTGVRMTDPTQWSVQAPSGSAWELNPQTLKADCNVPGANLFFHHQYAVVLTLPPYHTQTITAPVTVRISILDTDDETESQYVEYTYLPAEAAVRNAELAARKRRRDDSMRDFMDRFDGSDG

GST-Dm-Relish = target: T4, GST-Dm-Relish (UniProt Q94527)
T4 sequence: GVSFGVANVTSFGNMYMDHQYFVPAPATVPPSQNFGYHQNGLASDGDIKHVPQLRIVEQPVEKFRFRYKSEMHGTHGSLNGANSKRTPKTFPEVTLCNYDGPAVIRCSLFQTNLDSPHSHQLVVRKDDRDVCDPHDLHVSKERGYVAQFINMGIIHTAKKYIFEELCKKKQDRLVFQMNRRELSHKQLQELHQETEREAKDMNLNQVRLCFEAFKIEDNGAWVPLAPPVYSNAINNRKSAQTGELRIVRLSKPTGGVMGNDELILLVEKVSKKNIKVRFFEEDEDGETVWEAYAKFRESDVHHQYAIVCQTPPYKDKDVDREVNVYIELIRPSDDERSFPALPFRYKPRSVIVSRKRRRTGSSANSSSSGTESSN

GST-Aq-NF-kB = target: T5, GST-Aq-NF-kB (UniProt A9Y5G7)
T5 sequence: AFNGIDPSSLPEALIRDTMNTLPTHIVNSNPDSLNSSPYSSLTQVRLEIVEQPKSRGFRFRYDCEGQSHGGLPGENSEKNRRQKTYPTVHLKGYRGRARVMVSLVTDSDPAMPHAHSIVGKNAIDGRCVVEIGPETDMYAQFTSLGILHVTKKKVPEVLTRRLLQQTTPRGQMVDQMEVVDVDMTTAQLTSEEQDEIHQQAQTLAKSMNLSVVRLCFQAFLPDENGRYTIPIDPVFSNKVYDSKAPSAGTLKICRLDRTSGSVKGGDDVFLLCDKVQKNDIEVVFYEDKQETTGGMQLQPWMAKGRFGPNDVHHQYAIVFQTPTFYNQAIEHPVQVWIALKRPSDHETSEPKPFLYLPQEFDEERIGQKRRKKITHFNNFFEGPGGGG

| Sequence | binding signal (GST-Ap-NF-kB RHD) [z-score] | binding signal [1] [z-score] | binding signal (GST-Co-NF-kB) [z-score] | binding signal (GST-Dm-Relish) [z-score] | binding signal (GST-Aq-NF-kB) [z-score] |
| --- | --- | --- | --- | --- | --- |
| CCGATTAACATCATCGTGACCCATGATGTTAATCGGGTCTTGATTCGCTTGACGCTGCTG | -0.156 | 0.164 | -0.0798 | -0.388 | -0.2 |
| CCGATTAACATCAACCAACTTATTGATGTTAATCGGGTCTTGATTCGCTTGACGCTGCTG | -0.7 | 0.178 | -0.614 | -0.527 | -0.636 |
| CCGATTAACATCAGAAACATTCCTGATGTTAATCGGGTCTTGATTCGCTTGACGCTGCTG | -0.497 | 0.182 | -0.759 | 0.0722 | 0.285 |
| CCGATTAACATCACGGAATGGCCTGATGTTAATCGGGTCTTGATTCGCTTGACGCTGCTG | 0.0121 | -0.556 | 0.199 | 0.51 | 0.384 |
| CCGATTAACATCAATCCTAACAATGATGTTAATCGGGTCTTGATTCGCTTGACGCTGCTG | -0.329 | -0.247 | -0.182 | -0.861 | -0.699 |
| CCGATTAACATCAGTTAGGCCCATGATGTTAATCGGGTCTTGATTCGCTTGACGCTGCTG | 0.262 | -0.68 | -0.694 | -0.701 | 0.127 |
| CCGATTAACATCACTTACATTGGTGATGTTAATCGGGTCTTGATTCGCTTGACGCTGCTG | 0.166 | -0.0573 | 0.148 | 0.711 | -0.262 |
| CCGATTAACATCACATTTAGGACTGATGTTAATCGGGTCTTGATTCGCTTGACGCTGCTG | -0.583 | 0.246 | -0.33 | 0.456 | -0.0522 |
| CCGATTAACATCACGGTGAACAGTGATGTTAATCGGGTCTTGATTCGCTTGACGCTGCTG | 0.378 | -0.707 | -0.296 | 0.306 | 0.0687 |
| CCGATTAACATCAAGTACCAGGGTGATGTTAATCGGGTCTTGATTCGCTTGACGCTGCTG | 1.05 | -0.376 | 0.708 | 1 | 0.569 |
| CCGATTAACATCAAAATCATTCGTGATGTTAATCGGGTCTTGATTCGCTTGACGCTGCTG | -0.483 | -0.22 | -0.146 | 0.0836 | -0.335 |
| CCGATTAACATCAGTTCTCCGGATGATGTTAATCGGGTCTTGATTCGCTTGACGCTGCTG | 0.00854 | -1.43 | -0.538 | -0.882 | -0.381 |
| CCGATTAACATCAATCCCGAGCATGATGTTAATCGGGTCTTGATTCGCTTGACGCTGCTG | 0.416 | 0.303 | 0.878 | 0.231 | 0.674 |
